# Measurements taken from the supplement of paper PMC8728848.
# The list shows a part of the results.
# B1: rAAL-2 (Agrocybe aegerita) (protein)
# chain: MTSNVITQDLPIPVASRGFADIVGFGLDGVVIGRNAVNLQPFLAVKNFAQNAGGWLTTKHVRLIADTTGTGKGDIVGFGNAGVYVSVNNGKNTFADPPKMVIANFGYDAGGWRVEKHLRYLADIRKIGRADIIGFGEKGVLVSRNNGGLNFGPATLVLKDFGYDAGGWRLDRHLRFLADVTGNGHLDIVGFGDKHVFISRNNGDGTFAPAKSVIDNFCIDAGGWKIGDHPRFVADLTGDGTADIIGCGKAGCWVALNNGGGVFGQVKLVINDFGTDKGWQAAKHPRFIADLTGNGRGDVVGFGNAGVYVALNNGDGTFQSAKLVLKDFGVQQGWTVSKHRRFVVDLTGDGCADIIGFGEKETLVSYNDGKGNFGPVKALTNDFSFSGGKWAPETTVCWMANLDSSRH
# Assays:
# Assay in all cases: glycan array binding signal (z-score within array); higher = stronger binding
# Settings in all cases: glycan notation: IUPAC condensed, linker removed
# [1] = biological target: Fuc(a1-3)[Gal(b1-4)]GlcNAc(b1-4)Gal(b1-4)[Fuc(a1-3)]GlcNAc
# In short: (§1)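 The binding signal is a Z-score computed within each array and averaged over linkers. Arrays of the same protein sequence at different concentrations or buffers were also averaged together. Data originate from 3228 arrays in the Consortium for Functional Glycomics database, kept only where the protein sequence was available.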
# [2] = biological target: Fuc(a1-3)[Gal(b1-4)]GlcNAc(b1-4)Gal(b1-4)[Fuc(a1-3)]GlcNAc(b1-4)Gal(b1-4)[Fuc(a1-3)]GlcNAc
# In short: as §1
# [3] = biological target: Fuc(a1-3)[Gal(b1-4)]GlcNAc(b1-6)GalNAc
# In short: as §1
# [4] = biological target: Fuc(a1-3)[Gal(b1-4)]GlcNAc(b1-6)[Gal(b1-3)GlcNAc(b1-3)]Gal(b1-4)Glc
# In short: as §1
# [5] = biological target: Fuc(a1-3)[Gal(b1-4)]GlcNAc(b1-6)[Neu5Ac(a2-3)Gal(b1-3)]GalNAc
# In short: as §1
# [6] = biological target: Fuc(a1-3)[Gal(b1-4)]GlcNAc6S
# In short: as §1
# [7] = biological target: Fuc(a1-3)[Gal3S(b1-4)]Glc
# In short: as §1
# [8] = biological target: Fuc(a1-3)[Gal3S(b1-4)]GlcNAc
# In short: as §1
# [9] = biological target: Fuc(a1-3)[Gal3S(b1-4)]GlcNAc6S
# In short: as §1
# [10] = biological target: Fuc(a1-3)[GalNAc(b1-4)]GlcNAc
# In short: as §1
# [11] = biological target: Fuc(a1-3)[GalNAc(b1-4)]GlcNAc6S
# In short: as §1
# Fuc(a1-4)GlcNAc = biological target: Fuc(a1-4)GlcNAc
# In short: as §1
# Fuc(b1-3)GlcNAc = biological target: Fuc(b1-3)GlcNAc
# In short: as §1
# Gal(a1-2)Gal = biological target: Gal(a1-2)Gal
# In short: as §1
# Gal(a1-3)Gal = biological target: Gal(a1-3)Gal
# In short: as §1
# Gal(a1-3)Gal(b1-3)GlcNAc = biological target: Gal(a1-3)Gal(b1-3)GlcNAc
# In short: as §1
# [12] = biological target: Gal(a1-3)Gal(b1-3)GlcNAc(b1-2)Man
# In short: as §1
# [13] = biological target: Gal(a1-3)Gal(b1-3)GlcNAc(b1-2)Man(a1-3)[Gal(a1-3)Gal(b1-3)GlcNAc(b1-2)Man(a1-6)]Man(b1-4)GlcNAc(b1-4)GlcNAc
# In short: as §1
# [14] = biological target: Gal(a1-3)Gal(b1-3)GlcNAc(b1-3)GalNAc
# In short: as §1
# [15] = biological target: Gal(a1-3)Gal(b1-3)GlcNAc(b1-6)GalNAc
# In short: as §1
# [16] = biological target: Gal(a1-3)Gal(b1-3)[Fuc(a1-4)]GlcNAc(b1-2)Man(a1-3)[Gal(a1-3)Gal(b1-3)[Fuc(a1-4)]GlcNAc(b1-2)Man(a1-6)]Man(b1-4)GlcNAc(b1-4)GlcNAc
# In short: as §1
# Gal(a1-3)Gal(b1-4)Glc = biological target: Gal(a1-3)Gal(b1-4)Glc
# In short: as §1
# Gal(a1-3)Gal(b1-4)GlcNAc = biological target: Gal(a1-3)Gal(b1-4)GlcNAc
# In short: as §1
# [17] = biological target: Gal(a1-3)Gal(b1-4)GlcNAc(b1-2)Man
# In short: as §1
# [18] = biological target: Gal(a1-3)Gal(b1-4)GlcNAc(b1-2)Man(a1-3)[Gal(a1-3)Gal(b1-4)GlcNAc(b1-2)Man(a1-6)]Man(b1-4)GlcNAc(b1-4)GlcNAc
# In short: as §1
# [19] = biological target: Gal(a1-3)Gal(b1-4)GlcNAc(b1-3)GalNAc
# In short: as §1
# [20] = biological target: Gal(a1-3)Gal(b1-4)GlcNAc(b1-6)GalNAc
# In short: as §1
# [21] = biological target: Gal(a1-3)Gal(b1-4)[Fuc(a1-3)]GlcNAc
# In short: as §1
# [22] = biological target: Gal(a1-3)Gal(b1-4)[Fuc(a1-3)]GlcNAc(b1-2)Man(a1-3)[Gal(a1-3)Gal(b1-4)[Fuc(a1-3)]GlcNAc(b1-2)Man(a1-6)]Man(b1-4)GlcNAc(b1-4)GlcNAc
# In short: as §1
# Gal(a1-3)GalNAc = biological target: Gal(a1-3)GalNAc
# In short: as §1
# [23] = biological target: Gal(a1-3)[Gal(a1-4)]Gal(b1-4)GlcNAc
# In short: as §1
# [24] = biological target: Gal(a1-4)Gal(b1-3)GlcNAc(b1-2)Man(a1-3)[Gal(a1-4)Gal(b1-3)GlcNAc(b1-2)Man(a1-6)]Man(b1-4)GlcNAc(b1-4)GlcNAc
# In short: as §1
# Gal(a1-4)Gal(b1-4)Glc = biological target: Gal(a1-4)Gal(b1-4)Glc
# In short: as §1
# Gal(a1-4)Gal(b1-4)GlcNAc = biological target: Gal(a1-4)Gal(b1-4)GlcNAc
# In short: as §1
# [25] = biological target: Gal(a1-4)Gal(b1-4)GlcNAc(b1-2)Man(a1-3)[Gal(a1-4)Gal(b1-4)GlcNAc(b1-2)Man(a1-6)]Man(b1-4)GlcNAc(b1-4)GlcNAc
# In short: as §1
# [26] = biological target: Gal(a1-4)Gal(b1-4)GlcNAc(b1-3)Gal(b1-4)Glc
# In short: as §1
# Gal(a1-4)GlcNAc = biological target: Gal(a1-4)GlcNAc
# In short: as §1
binder,measurement,setting,value
B1,glycan array binding signal (z-score),[1],-0.252
same,glycan array binding signal (z-score),[2],-0.189
same,glycan array binding signal (z-score),[3],-0.314
same,glycan array binding signal (z-score),[4],-0.23
same,glycan array binding signal (z-score),[5],-0.201
same,glycan array binding signal (z-score),[6],-0.216
same,glycan array binding signal (z-score),[7],-0.332
same,glycan array binding signal (z-score),[8],-0.157
same,glycan array binding signal (z-score),[9],-0.253
same,glycan array binding signal (z-score),[10],-0.174
same,glycan array binding signal (z-score),[11],-0.304
same,glycan array binding signal (z-score),Fuc(a1-4)GlcNAc,-0.247
same,glycan array binding signal (z-score),Fuc(b1-3)GlcNAc,-0.077
same,glycan array binding signal (z-score),Gal(a1-2)Gal,-0.106
same,glycan array binding signal (z-score),Gal(a1-3)Gal,-0.279
same,glycan array binding signal (z-score),Gal(a1-3)Gal(b1-3)GlcNAc,-0.218
same,glycan array binding signal (z-score),[12],-0.036
same,glycan array binding signal (z-score),[13],-0.124
same,glycan array binding signal (z-score),[14],-0.274
same,glycan array binding signal (z-score),[15],0.188
same,glycan array binding signal (z-score),[16],-0.163
same,glycan array binding signal (z-score),Gal(a1-3)Gal(b1-4)Glc,-0.146
same,glycan array binding signal (z-score),Gal(a1-3)Gal(b1-4)GlcNAc,-0.304
same,glycan array binding signal (z-score),[17],-0.49
same,glycan array binding signal (z-score),[18],-0.322
same,glycan array binding signal (z-score),[19],-0.36
same,glycan array binding signal (z-score),[20],-0.276
same,glycan array binding signal (z-score),[21],-0.221
same,glycan array binding signal (z-score),[22],0.007
same,glycan array binding signal (z-score),Gal(a1-3)GalNAc,-0.284
same,glycan array binding signal (z-score),[23],-0.293
same,glycan array binding signal (z-score),[24],0.191
same,glycan array binding signal (z-score),Gal(a1-4)Gal(b1-4)Glc,-0.055
same,glycan array binding signal (z-score),Gal(a1-4)Gal(b1-4)GlcNAc,-0.249
same,glycan array binding signal (z-score),[25],0.062
same,glycan array binding signal (z-score),[26],-0.194
same,glycan array binding signal (z-score),Gal(a1-4)GlcNAc,-0.183
